# Values of other authors, collected in PubChem BioAssay AID1259409 (Chemical Carcinogenesis Research Information System (CCRIS), 2018).
# This continues a long series; more values of the same kind are listed elsewhere.
# System: rodent chemically induced tumor inhibition, incidence and multiplicity
# Experiment: CCRIS tumor inhibitor studies
# Conditions: Carcinogen: 7,12-DIMETHYLBENZ[A]ANTHRACENE, 57-97-6, Carcinogen: 7,12-DIMETHYLBENZ[A]ANTHRACENE, Route [Inhibitor]: ORAL, Species: RAT, Strain/Sex: SPRAGUE-DAWLEY/FEMALE, Promoter: NONE USED
# Text: The CCRIS database contains chemical records with carcinogenicity, mutagenicity, tumor promotion, and tumor inhibition test results. It was developed by the National Cancer Institute (NCI). Data are derived from studies cited in primary journals, current awareness tools, NCI reports, and other sources. Test results have been reviewed by experts in carcinogenesis and mutagenesis.
# CCRIS provides historical information from the years 1985 - 2011. It is no longer updated.
# This is an archive assay for CCRIS tumor inhibitor studies.
smiles,measurement,setting,value
O=[Se](O)O,"tumour outcome (control, treated, inhibition, significance)","57-97-6, Dose [Inhibitor]: 1.05 UG/G OF A TORULA YEAST DIET DAILY FOR 36 D STARTING 22 D BEFORE CARCINOGEN TREATMENT FOLLOWED BY 0.21 UG/G OF A PUR, Dose [Inhibitor]: 1.05 UG/G OF A TORULA YEAST DIET DAILY FOR 36 D STARTING 22 D BEFORE CARCINOGEN TREATMENT FOLLOWED BY 0.21 UG/G OF A PUR, Target Tissue: Type of Lesion: MAMMARY GLAND: CARCINOMA, Dose [Carcinogen]: 7.5 MG IN 1.0 ML SESAME OIL ONCE AT 50 D OF AGE","20/25 (80%), 17/23 (74%), 8%, not significant"
same,"tumour outcome (control, treated, inhibition, significance)","57-97-6, Dose [Inhibitor]: 1.05 UG/G OF A TORULA YEAST DIET DAILY FOR 36 D STARTING 22 D BEFORE CARCINOGEN TREATMENT FOLLOWED BY 0.21 UG/G OF A PUR, Dose [Inhibitor]: 1.05 UG/G OF A TORULA YEAST DIET DAILY FOR 36 D STARTING 22 D BEFORE CARCINOGEN TREATMENT FOLLOWED BY 0.21 UG/G OF A PUR, Target Tissue: Type of Lesion: MAMMARY GLAND: CARCINOMA, Dose [Carcinogen]: 15 MG IN 1.0 ML SESAME OIL ONCE AT 50 D OF AGE","17/17 (100%), 17/19 (89%), 11%, not significant"
same,"tumour outcome (control, treated, inhibition, significance)","57-97-6, Dose [Inhibitor]: 2.06 UG/G OF A TORULA YEAST DIET DAILY FOR 36 D STARTING 22 D BEFORE CARCINOGEN TREATMENT FOLLOWED BY 0.21 UG/G OF A PUR, Dose [Inhibitor]: 2.06 UG/G OF A TORULA YEAST DIET DAILY FOR 36 D STARTING 22 D BEFORE CARCINOGEN TREATMENT FOLLOWED BY 0.21 UG/G OF A PUR, Target Tissue: Type of Lesion: MAMMARY GLAND: CARCINOMA, Dose [Carcinogen]: 7.5 MG IN 1.0 ML SESAME OIL ONCE AT 50 D OF AGE","20/25 (80%), 19/24 (79%), 1%, not significant"
same,"tumour outcome (control, treated, inhibition, significance)","57-97-6, Dose [Inhibitor]: 2.06 UG/G OF A TORULA YEAST DIET DAILY FOR 36 D STARTING 22 D BEFORE CARCINOGEN TREATMENT FOLLOWED BY 0.21 UG/G OF A PUR, Dose [Inhibitor]: 2.06 UG/G OF A TORULA YEAST DIET DAILY FOR 36 D STARTING 22 D BEFORE CARCINOGEN TREATMENT FOLLOWED BY 0.21 UG/G OF A PUR, Target Tissue: Type of Lesion: MAMMARY GLAND: CARCINOMA, Dose [Carcinogen]: 15 MG IN 1.0 ML SESAME OIL ONCE AT 50 D OF AGE","17/17 (100%), 14/16 (88%), 12%, not significant"
same,"tumour outcome (control, treated, inhibition, significance)","57-97-6, Dose [Inhibitor]: 2.5 PPM IN DIET DAILY STARTING AT WEANING AND CONTINUING FOR DURATION OF STUDY (STUDY DURATION: 25 WK), Dose [Inhibitor]: 2.5 PPM IN DIET DAILY STARTING AT WEANING AND CONTINUING FOR DURATION OF STUDY (STUDY DURATION: 25 WK), Target Tissue: Type of Lesion: MAMMARY GLAND: NEOPLASM, Dose [Carcinogen]: 5 MG ONCE AT 50 D OF AGE","16/25 (64%), 9/25 (36%), 44%, p<0.05"
same,"tumour outcome (control, treated, inhibition, significance)","57-97-6, Dose [Inhibitor]: 2.5 PPM IN DIET DAILY STARTING AT WEANING AND CONTINUING UNTIL 1 WK AFTER CARCINOGEN TREATMENT (STUDY DURATION: 25 WK), Dose [Inhibitor]: 2.5 PPM IN DIET DAILY STARTING AT WEANING AND CONTINUING UNTIL 1 WK AFTER CARCINOGEN TREATMENT (STUDY DURATION: 25 WK), Target Tissue: Type of Lesion: MAMMARY GLAND: NEOPLASM, Dose [Carcinogen]: 5 MG ONCE AT 50 D OF AGE","16/25 (64%), 15/25 (60%), 6%, not significant"
same,"tumour outcome (control, treated, inhibition, significance)","57-97-6, Dose [Inhibitor]: 3.4 PPM IN DRINKING WATER DAILY FOR 104 D STARTING 7 D AFTER CARCINOGEN TREATMENT AND CONTINUING FOR DURATION OF STUDY (, Dose [Inhibitor]: 3.4 PPM IN DRINKING WATER DAILY FOR 104 D STARTING 7 D AFTER CARCINOGEN TREATMENT AND CONTINUING FOR DURATION OF STUDY (, Target Tissue: Type of Lesion: MAMMARY GLAND: CARCINOMA, Dose [Carcinogen]: 5 MG IN 1 ML SESAME OIL ONCE AT 50 D OF AGE","38%, 5%, 87%, p<0.01"
